# Experimental data from the supplement of paper PMC10037445.
# Over roughly 2,900 compounds, “NF-kB SEAP reporter activity, fold change vs agonist alone” has its median near 0.99; the highest 2% begin near 2.6. The list shows a part of the results.
# Tests used:
# RAW-Dual [1] = experiment: NF-kB SEAP reporter activity, fold change vs agonist alone; cytotoxicity flag (confluency mask): cytotoxic (confluency <70% of control); higher = enhanced NF-kB activity
# In short: (§1)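 Supernatant from RAW-Dual macrophages was read after 20 hours for IRF by QuantiLuc luminescence and for NF-κB by QuantiBlue absorbance at 620 nm. The cells (50,000 cells/well in DMEM, 384-well plates, 37 °C, 5% CO2) had received 50 nL of library stock by pin tool and, 1 h later, a PRR agonist. Reporter activity is expressed relative to agonist-alone wells as fold change, and wells were flagged cytotoxic if IncuCyte confluency was under 70% of agonist controls in both mask sets.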
# RAW-Dual [2] = experiment: NF-kB SEAP reporter activity, fold change vs agonist alone; higher = enhanced NF-kB activity
# In short: as §1
# RAW-Dual [3] = experiment: NF-kB SEAP reporter activity, fold change vs agonist alone; cytotoxicity flag (confluency mask): not cytotoxic; higher = enhanced NF-kB activity
# In short: as §1
# [4] = agonist: ODN 1826 (TLR9) 0.5 ug/mL
# [5] = agonist: Pam2CSK4 (TLR2/6) 0.1 ug/mL
# [6] = agonist: Pam3CSK4 (TLR2/1) 0.1 ug/mL
# [7] = library stock concentration (final ~1000-fold dilution): 10 mM, cytotoxicity flag (confluency mask): cytotoxic (confluency <70% of control), agonist: Imiquimod (TLR7) […]
# [8] = library stock concentration (final ~1000-fold dilution): 10 mM, cytotoxicity flag (confluency mask): cytotoxic (confluency <70% of control), agonist: MPLA (TLR4) […]
# [9] = library stock concentration (final ~1000-fold dilution): 10 mM, cytotoxicity flag (confluency mask): not cytotoxic, agonist: Imiquimod (TLR7) […]
# [10] = library stock concentration (final ~1000-fold dilution): 10 mM, cytotoxicity flag (confluency mask): not cytotoxic, agonist: MPLA (TLR4) […]
smiles,measurement,setting,value
O=c1[nH]c(=O)n(C2CC(O)C(CO)O2)cc1F (stereo not drawn) (library stock concentration (final ~1000-fold dilution): 10 mM),NF-kB SEAP reporter activity,RAW-Dual [1]; agonist: LPS (TLR4) 0.1 ug/mL,1.54
same,NF-kB SEAP reporter activity,RAW-Dual [1]; [4],2.11
same,NF-kB SEAP reporter activity,RAW-Dual [1]; [5],1.5
same,NF-kB SEAP reporter activity,RAW-Dual [1]; [6],1.51
O=c1[nH]c(=O)n(C2CC(O)C(CO)O2)cc1F (stereo not drawn),NF-kB SEAP reporter activity,RAW-Dual [2]; [7],2.07
same,NF-kB SEAP reporter activity,RAW-Dual [2]; [8],1.49
COc1ccc(C(=O)C=Cc2cc(OC)c(OC)c(OC)c2)cc1OC (library stock concentration (final ~1000-fold dilution): 20 mM),NF-kB SEAP reporter activity,RAW-Dual [1]; agonist: LPS (TLR4) 0.1 ug/mL,0.326
same,NF-kB SEAP reporter activity,RAW-Dual [1]; [4],0.215
same,NF-kB SEAP reporter activity,RAW-Dual [1]; [5],0.0975
same,NF-kB SEAP reporter activity,RAW-Dual [1]; [6],0.176
COc1ccc(C(=O)C=Cc2cc(OC)c(OC)c(OC)c2)cc1OC,NF-kB SEAP reporter activity,"RAW-Dual [2]; library stock concentration (final ~1000-fold dilution): 20 mM, cytotoxicity flag (confluency mask): cytotoxic (confluency <70% of control), agonist: Imiquimod (TLR7) […]",0.192
same,NF-kB SEAP reporter activity,"RAW-Dual [2]; library stock concentration (final ~1000-fold dilution): 20 mM, cytotoxicity flag (confluency mask): cytotoxic (confluency <70% of control), agonist: MPLA (TLR4) […]",0.302
CN1CCN(C(=O)C2C3CCC(O3)C2C(=O)O)CC1 (stereo not drawn) (library stock concentration (final ~1000-fold dilution): 10 mM water),NF-kB SEAP reporter activity,RAW-Dual [3]; agonist: LPS (TLR4) 0.1 ug/mL,2.34
same,NF-kB SEAP reporter activity,RAW-Dual [3]; [4],1.37
same,NF-kB SEAP reporter activity,RAW-Dual [3]; [5],1.78
same,NF-kB SEAP reporter activity,RAW-Dual [3]; [6],1.21
CN1CCN(C(=O)C2C3CCC(O3)C2C(=O)O)CC1 (stereo not drawn),NF-kB SEAP reporter activity,"RAW-Dual [2]; library stock concentration (final ~1000-fold dilution): 10 mM water, cytotoxicity flag (confluency mask): not cytotoxic, agonist: Imiquimod (TLR7) […]",1.21
same,NF-kB SEAP reporter activity,"RAW-Dual [2]; library stock concentration (final ~1000-fold dilution): 10 mM water, cytotoxicity flag (confluency mask): not cytotoxic, agonist: MPLA (TLR4) […]",1.21
CCCCNc1ncc2c(-c3ccc(CN4CCN(C)CC4)cc3)cn(C3CCC(O)CC3)c2n1.Cl (stereo not drawn),NF-kB SEAP reporter activity,RAW-Dual [2]; [7],0.547
same,NF-kB SEAP reporter activity,RAW-Dual [2]; [8],0.322
CCCCNc1ncc2c(-c3ccc(CN4CCN(C)CC4)cc3)cn(C3CCC(O)CC3)c2n1.Cl (stereo not drawn) (library stock concentration (final ~1000-fold dilution): 10 mM),NF-kB SEAP reporter activity,RAW-Dual [1]; agonist: LPS (TLR4) 0.1 ug/mL,0.236
same,NF-kB SEAP reporter activity,RAW-Dual [1]; [4],0.351
same,NF-kB SEAP reporter activity,RAW-Dual [1]; [5],0.128
same,NF-kB SEAP reporter activity,RAW-Dual [1]; [6],0.192
COc1ccc(S(=O)(=O)Nc2cc(-c3c(O)ccc4ccccc34)c(O)c3ccccc23)cc1,NF-kB SEAP reporter activity,RAW-Dual [2]; [9],1.17
same,NF-kB SEAP reporter activity,RAW-Dual [2]; [10],1.61
COc1ccc(S(=O)(=O)Nc2cc(-c3c(O)ccc4ccccc34)c(O)c3ccccc23)cc1 (library stock concentration (final ~1000-fold dilution): 10 mM),NF-kB SEAP reporter activity,RAW-Dual [3]; agonist: LPS (TLR4) 0.1 ug/mL,4.3
same,NF-kB SEAP reporter activity,RAW-Dual [3]; [4],1.09
same,NF-kB SEAP reporter activity,RAW-Dual [3]; [5],1.29
same,NF-kB SEAP reporter activity,RAW-Dual [3]; [6],1.38
COc1ccc(CC2c3cc(OC)c(OC)cc3CC[N+]2(C)CCC(=O)OCCCCCOC(=O)CC[N+]2(C)CCc3cc(OC)c(OC)cc3C2Cc2ccc(OC)c(OC)c2)cc1OC.O=S(=O)([O-])c1ccccc1.O=S(=O)([O-])c1ccccc1 (stereo not drawn),NF-kB SEAP reporter activity,RAW-Dual [2]; [9],0.967
same,NF-kB SEAP reporter activity,RAW-Dual [2]; [10],0.733
COc1ccc(CC2c3cc(OC)c(OC)cc3CC[N+]2(C)CCC(=O)OCCCCCOC(=O)CC[N+]2(C)CCc3cc(OC)c(OC)cc3C2Cc2ccc(OC)c(OC)c2)cc1OC.O=S(=O)([O-])c1ccccc1.O=S(=O)([O-])c1ccccc1 (stereo not drawn) (library stock concentration (final ~1000-fold dilution): 10 mM),NF-kB SEAP reporter activity,RAW-Dual [3]; agonist: LPS (TLR4) 0.1 ug/mL,0.772
same,NF-kB SEAP reporter activity,RAW-Dual [3]; [4],0.571
same,NF-kB SEAP reporter activity,RAW-Dual [3]; [5],0.511
same,NF-kB SEAP reporter activity,RAW-Dual [3]; [6],0.748
O=C(O)C(O)Cc1ccc(O)c(O)c1 (stereo not drawn),NF-kB SEAP reporter activity,RAW-Dual [2]; [9],0.927
same,NF-kB SEAP reporter activity,RAW-Dual [2]; [10],1
